# Assay results published in the supplement of paper PMC10681739.
# Whole data set: some 4,000 sequences, median “arbitrary fluorescence units” near 830, cut for the highest 2% near 6,500. The list lacks most of the strong results.
# Target: RUNX1 (UniProt Q01196)
# Assay: RUNX1 binding intensity (PBM fluorescence), RUNX1 alone (arbitrary fluorescence units); higher = stronger binding
# Settings: RUNX1 concentration 2 nM; ETS1 concentration 0 nM
# Description: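 gcPBM on 36-bp genomic-derived probes (partner site mutated) containing one RUNX1 site and no ETS1 site. Recombinant human RUNX1 (2 nM) was incubated alone or with ETS1 (25 nM) and detected by anti-RUNX1 antibody fluorescence. Values are medians over 4 replicate spots (not normalised). The probes sit in constant array flanks that are not printed.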
# 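Note: Full-length recombinant human RUNX1 bound to double-stranded DNA microarray spots, detected with an Alexa488-labelled secondary antibody after the anti-RUNX1 primary, read as scanned spot fluorescence.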
# Sequence of UniProt Q01196 (Q01196 whole entry): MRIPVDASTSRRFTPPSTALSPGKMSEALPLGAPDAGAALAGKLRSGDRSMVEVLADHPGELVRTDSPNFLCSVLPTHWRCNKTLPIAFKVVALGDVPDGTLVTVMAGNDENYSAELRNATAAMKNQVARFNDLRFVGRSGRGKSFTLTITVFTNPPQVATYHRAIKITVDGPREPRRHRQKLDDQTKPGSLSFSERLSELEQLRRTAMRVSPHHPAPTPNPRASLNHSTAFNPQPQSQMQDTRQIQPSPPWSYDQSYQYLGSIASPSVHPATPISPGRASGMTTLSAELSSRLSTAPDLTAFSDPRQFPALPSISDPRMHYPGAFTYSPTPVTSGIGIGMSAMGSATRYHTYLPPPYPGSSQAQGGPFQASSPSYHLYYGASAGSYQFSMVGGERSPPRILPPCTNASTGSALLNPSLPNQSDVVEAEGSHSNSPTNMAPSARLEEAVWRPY
row,Sequence,RUNX1 binding intensity
1,CCGACACGATGGGTGAGCTGTTGTGGCCGGTTTAAG,721
2,GCTCAACTCACCCACAGAACATGAGGACGTTATACA,1150
3,GGCGTGCTGCGGTGCTGTCATTGCCTGGTGCCTTTT,808
4,GGGCAGGTGCGGCTGCCGAGGAGAGTGGTCACCTCG,700
5,GGCCGACGGGAATTGTAGTCCGGCCTGCGGTCCGGG,716
6,TTGTGGTAGGGAAATCCACTTACCCCCTCCTCATGT,808
7,CTCACCGCGAAGCCCAGGAGCGGCCAGCAAATGAGC,770
8,GAAGAGTTGTGGGATGAGGGCTCGCGGACGATAAAA,739
9,GGAGTGAGGAGCAAGCGGAGGCGAGACCGCGCTCAA,765
10,TTGCACTCTGCGGGGACGGGAGAAGGAACGAAAAAT,805
11,CGGGCTCTCCAGCAAGGTGGCTGCGGCGACAAAATG,744
12,CACGGAGCAGCCTGGAACTCTGCGGCCTGTGATTAC,825
13,GACGCAGCCGCAGAGCGATTCGCGTCCCGGGAGCGG,700
14,CAGCCCCAGGCGGTTTAGTTTTTTAGGAGACCGAGA,751
15,CCACTCCAGGCAACTCCTCCAGGTGAGCCCACAACT,962
16,CAGGACGCTGTCGCCGCAGCTTCTTCAGGCTAGCTG,725
17,ATGACTCATTGCCTCACTCTCTACTCCCACAGAACC,1280
18,GAGTTGCTTACGGCCGTGTTGGTGGTCTGAATTGAG,827
19,CCAGAAACCACTTTCAGGTATGTGGAGAAGGAGGTC,824
20,ACAGCAAGTCAGCTGAGTACCGAGCAAGCCGCATGC,657
21,AGGGCAATTCCTTTGGGGCTGGTGGTCACGGACAAC,739
22,GCAGAGAGGAGGTGTGGGGGTGGAGGAGGCCGCAGA,848
23,CCGCGGTTCCTGCTGCAGAAAGAAAGCGCAAATTTC,760
24,AAAACGCGCAAATACGGAGGCTGCGGCCCGCGGGCA,631
25,CGGGAGATTCCAGATCCAGGATCTGCTGCGGGCCCG,676
26,CCCTTGCCAGAGGAATCCACTGCCACCGCAGAAGCA,942
27,GCATTGTGGTGGAAGACGCGCGCCGTATCTCTCAGG,837

row,Sequence,RUNX1 binding intensity
1,GTGGCGCGGTGGGGCGCGGACCCGAAACTGCCAAGT,706
2,CCCCTAGTTCCCTTTTTGCTGGGCCGCAGTTTCGGT,1090
3,CTCCCCGCAGGGGGCCGCGCTTTATACACCCGGACC,798
4,AACAAACCACTCAATAGTGGCCAAACTACATGCTGG,803
5,GTCACCTGTGGCTTTTGGGGTGGGGGAGCAAGAAGA,823
6,CACTTGTCCTGCCTGGCCTGCGGCCGCCACCACTTC,1190
7,GCCGGCCGCAAAGCAGCTCCGCCCCTTGCTCTTCCA,1110
8,GGCTAAAGTGGTTGGGGGTTGGAGCCGGCGCGTGAC,859
9,TCTCTTTGGTGGTTTCTTCTTTATCTTCATGGCTAG,2370
10,AGGCTTTGCTGCCACAAACTTTCGTGCCACGAACCT,779
11,CCTCCTTGCTCCCTGAGGGGGAGGTGGTTTTTGAGT,856
12,ACCTCCACCACAAAGAACAAAAAACGAAGGATAAAA,1520
13,GGACTGCCTGAACTGGGAGGTCACCGACCACAACCT,866
14,ACTTAGACGCCGCAACCCCAGGTCCGCGCTTGCTGC,800
15,ACCTTGCGGGGGCAGTGGGTGGGTGTCACCTCCTCC,934
16,GTCTTAGGTTGGAAGTCTGTGGTCCCTGTTCACATG,774
17,GATTCATGTCCTCCTCTATGCAACCACAGCATCTTC,1410
18,AGGGTGTTAGGGCCACAAGGGCAGCAAGACCAAGTG,742
19,AGTGCTGGGCTGTGGGCCGGGGAGCAAGGCGGCTCG,762
20,TTCTGTGGGGACAATTAGGGTTTCTGGGTTTTCTGA,865
21,CTGCGGTCGGGGCGAGGGAGCTGCCGGGGAGGTGAG,1060
22,GCCTCCTCAGGCAATTGCCCAAAATAGCCACATGTC,1060
23,TCTGGGCTGTGGTTACAAGCAGCAAGTGGCCATGGC,1540
24,AGCAAGGCCTGCGGGGAGGCGCAGCATGGACGCGTT,659
25,GAGTCGCTTCAGCTCCCGCCCCGCTCTGTGGCGTAG,698
26,AGTGCTTTGCGGTATAATACTGCACATGCTGTGTTG,3870
27,GCCCCGAAAGTGGCCCGGCTGTTGGCCGCAGCGGGA,734

row,Sequence,RUNX1 binding intensity
1,CTCTGAGCAGCAAGTGACAAAACCACGCAGGGCAGG,694
2,AGTAACCCGCAGGCTGTGCCGGCAGCATGTTGTCTT,1210
3,GTGGACTGGAGCCACAAGGGAGGCAGCAAGGAAGGT,739
4,AGCACCACATTCTACACCTCCACCTCATGCTGCGTC,1180
5,GGGGCTTGCTGCCGCAGAGCCGCCTTCGGCCCTCCC,743
6,GAAACCTCAGGCACGGCCGGGCCACCATGAAAACAC,806
7,CCATAGCCTAACCTCAAGCACCTCAGGCAGTTCTTT,1160
8,CTCTCTTTACTGTTGAGTAATCGCGGTCTCTGCTCC,988
9,GAGACTGCGGCCTCAGTGGTGCTGAAGATGGAGAGG,695
10,TACGACTTCAAGGCGGTCAACATCCAGGGCAAACTG,730
11,TCTTGGTGGTACTGCTGCACAGCAGCAAGTGGAAAC,764
12,GTGAGAGGAGGTGGGCGCTGGTTTAATGTGGTCAGC,786
13,CCCTCTGCGGGACGAAGAAGGGGGACGTGCTGCTGG,777
14,GAGGTGCCTGAAGCCAGTAGGTGGTTTTGGGTGCTA,662
15,GTGTAACGCCCGTATGCATATCTATTTGCGGCCACC,768
16,AGATTTATGTGGTAAATGGTTTCAGGGAACTGGTTC,1010
17,GGCCTTTTCTTCGGCCCTCACAGCCACCGCGACCCA,1050
18,AGCAAAACCAAAAAAAAAAAAAAAAAGAGGAGATAA,854
19,CTTGCGCCGTACGGGTACCTGCGGGCGGGGTGTACC,802
20,TACGTCACTTTCGGGCCGCCGTCCTGCGGGCAAGGG,774
21,CAGTTCCAGGGAGCAGCCCCAAGCTTGTGGCCCTGA,686
22,GCCTCCTCCCATCTCCTCCATGTGGTCAATCCAGTT,2110
23,GCACAGGCCGTAAGGAAAAGGGTTGTGGGGCTCATT,726
24,ATATATCACCCCTGCCTTGCAAAACCACAAGACCAA,4850
25,AAGCCAGGATACCGCAGCCCTGCAGGGTGTGACTCA,2150
26,GGGAGCGCGGTCGCAGCTCCCACTGCCGCCCTCTGG,734
